As usually defined, the % Inhibition is the relative decrease from the control value, in per cent.

The campaign covered roughly 150,000 compounds. About 540 (0.36%) showed an effect of 50% or more. The list shows a part of the results.

The results in this text go back to ChEMBL document CHEMBL4888484, “Replenishing the malaria drug discovery pipeline: Screening and hit evaluation of the MMV Hit Generation Library 1 (HGL1) against asexual blood stage Plasmodium falciparum ,using a nano luciferase reporter read-out” (2022).

The test system of this test is Plasmodium falciparum. The experiment in a line: Primary screen in NF54 nanoGlo assay, in single point, at 2uM, 72h; a lower Z score goes with more inhibition. It counts as functional, Erythrocyte. The following applies: timepoint 72 hour.
As to `C#Cc1cccc(NC(=O)CN(C)C(=O)c2cnc3[nH]nnc3c2)c1`, the “% Inhibition” value came out at 5% and the Z score is reported as -0.74.
The like results for `CC(C)(C)C(=O)Nc1cc(S(C)(=O)=O)ccc1Cl` were, in that order, -2% and 0.15.
For `CCC(NC(=O)c1ncoc1C)C(O)C(F)(F)F` (stereo not drawn), in that order: -4% and 0.68.
As for `CC(C)c1noc([C@H](C)Nc2ccc3c(c2)CCO3)n1`, the “% Inhibition” value is reported as -13% and the Z score was 2.6.
For `O=C(c1ccccc1)C(C(=O)c1ccccc1)[C@@H](c1ccccc1)c1nc2ccccc2[nH]c1=O`, in that order: 2% and -0.26.
`CC[C@@](C)(CC(=O)OC)NCc1cnc(C)cn1`: the “% Inhibition” value was -13% and the Z score is 1.19.
The like results for `COC(=O)NC1CCN(c2ccccc2C(=O)N2CCC(C)CC2)CC1` were, in that order, -1% and 0.08.
Take `C=C(C)Cn1c(CN(C)C)nnc1N1CCC(C)(COC)CC1`: the “% Inhibition” value is listed as -2% and the Z score was found to be 0.31.
For `CCOc1ccc(CN2CCCn3cccc3[C@H]2c2cc(F)ccc2F)cc1`, in that order: -6% and 1.2.
The like results for `COc1ccc(C(=O)N2CC[C@@H]3COCCN(C)[C@@H]3C2)cc1F` were, in that order, -1% and 0.1.
The like results for `O=C(Nc1ccccc1CCc1ccccn1)N1C[C@H]2CC[C@H]1C2` were, in that order, -16% and 1.59.
Take `CC1=CC[C@H]2CN(c3nc(C(N)=O)cs3)C[C@H]2C1`: the “% Inhibition” value came to 2% and the Z score is -0.42.
For the compound `Cc1cc(Cl)ccc1NC(=O)CN(C)S(=O)(=O)c1c[nH]c(C(=O)N2CCCCCC2)c1`, the “% Inhibition” value amounted to 8% and the Z score was -0.81.
The like results for `O=C(O)C(CNC(=O)C1CC1C1CC1)Cc1ccccc1` (stereo not drawn) were, in that order, -5% and 0.72.
For `Cc1cnccc1OC1CCN(C(=O)[C@H](CO)NC(=O)C(C)C)CC1`, in that order: 5% and -1.08.
For `O=c1ccc(S(=O)(=O)N2CCCCC2)cn1CCOc1ccccc1`, in that order: -6% and 1.27.
Consider `COc1cc(CNn2cnnc2)ccc1OCc1c(F)cccc1Cl`, for which the “% Inhibition” value is -28% and the Z score is on record as 3.24.
The like results for `Cc1nnc2ccc(S(=O)(=O)Nc3cc(F)cc(F)c3)cn12` were, in that order, 30% and 0.
For `Cc1ccc2c(c1)C(=O)N(CCCC(=O)NCc1ccc(N3CCCN(C)CC3)nc1)C2=O`, in that order: 2% and -0.29.
For `Cc1cc(C)n(-c2cncc(NCCc3nc(C)no3)n2)n1`, the “% Inhibition” value is given as -11% and the Z score worked out at 1.48.
The like results for `O=C(c1ccc(CC2CCN(Cc3cccc(F)c3)CC2)cc1)N1CCOCC1` were, in that order, -4% and 0.78.
For `CC(C)NC(=O)CCN(Cc1ccco1)C(=O)c1csc(Nc2cccc(Cl)c2Cl)n1`, in that order: 6% and -0.98.
The like results for `CCCCn1c(C(=O)NCC(C)C)cc2c(OCC)cccc21` were, in that order, -11% and 1.35.
For `O=C(Cc1n[nH]c(=O)c2cc(-c3ccc(F)cc3)nn12)NCc1ccc(F)cc1`, the “% Inhibition” value was 1% and the Z score is listed as -0.19.
The like results for `O=C1NCC2(CCN(C(=O)C[C@@H](c3ccccc3)c3ccccc3F)CC2)O1` were, in that order, -7% and 0.87.
For `Cc1ccc2[nH]c(CN3CC[C@](O)(C4CC4)[C@@H](C)C3)c(C)c2c1`, in that order: -11% and 1.52.
For `O=C(Nc1cc(-c2cccs2)no1)c1ccccc1F`, in that order: -15% and 2.53.
Regarding `O=C(NC1CCOCC1)c1cccc(S(=O)(=O)N2CCCCCCC2)c1`, the “% Inhibition” value is listed as -10% and the Z score worked out at 0.95.
In the case of `CS(=O)(=O)c1ccc(Cn2cc3c(c(C#N)c2=O)CCC3)cc1`, the “% Inhibition” value is recorded as -14% and the Z score is 2.04.
For `O=C(CC1C(=O)OCC2CCCCN21)Nc1cccc(Cl)c1` (stereo not drawn), in that order: -7% and 1.29.
The like results for `CC1NCCN(C(=O)OC(C)(C)C)C1C` (stereo not drawn) were, in that order, -14% and 1.5.
The like results for `OC1C2CCCC1C(c1ccccc1)NC2c1ccccc1` (stereo not drawn) were, in that order, 27% and -3.07.
For `O=C1NCCOCCCN(C(=O)c2ccsc2)[C@H]2CCCC[C@@H]12`, the “% Inhibition” value is listed as -10% and the Z score is 1.69.
For `Cn1ccnc1CN1CCN(C(=O)NCc2nc3ccccc3c(=O)[nH]2)CC1`, in that order: 1% and -0.17.
The like results for `CCCn1c(=O)c2sccc2n(CC(=O)N[C@@H](C)CCc2ccccc2)c1=O` were, in that order, -3% and 0.35.
Take `Cc1cccnc1CNC(=O)Nc1c(C)cnn1CC1CC1`: the “% Inhibition” value was -9% and the Z score turned out to be 1.53.
The like results for `CCn1nc(Cc2ccccc2OC)nc1CN1CCCCC1=O` were, in that order, 0% and 0.06.
For `CCOc1ncccc1C(=O)NCc1noc(C(N)=O)n1`, in that order: -1% and 0.1.
Turning to `O=C(Nc1ccccc1F)c1oc2ccccc2c1NC(=O)C(c1ccccc1)c1ccccc1`, the “% Inhibition” value is -2% and the Z score was 0.4.
As to `O=C1C2C3C=CC(C3=C(c3ccccc3)c3ccccc3)C2C(=O)N1c1ccccn1` (stereo not drawn), the “% Inhibition” value is 24% and the Z score is listed as -3.01.
On to `Cc1nn(CC(=O)N2CC[C@@H](OC(C)C)C2)c2ncccc12`, for which the “% Inhibition” value is on record as 4% and the Z score is -0.7.
Consider `CN(C)c1nc(N)nc(C(=O)N[C@H](c2ccccc2)C2CC2)n1`, for which the “% Inhibition” value stood at 5% and the Z score is given as -0.69.
For `O=S(=O)(NCC1(c2ccsc2)CCCC1)c1cccnc1`, in that order: 5% and -0.7.
For `CCN(CC)C(=O)[C@@H](NC(=O)c1ccccc1)C1CCN(C(=O)c2cccc(Br)c2)CC1`, in that order: -7% and 0.72.
The like results for `O=C(CCc1cscn1)N1CCc2[nH]ncc2C1` were, in that order, -10% and 1.93.
With `OCCN(CCO)Cc1c[nH]nc1-c1ccc(-c2ccccc2)cc1`, the “% Inhibition” value is given as 11% and the Z score is -1.7.
The like results for `CC(c1ccccc1)C(CNC(=O)CC1CC1)NC(=O)CC1CC1` (stereo not drawn) were, in that order, -5% and 0.61.
The like results for `O=C(c1cnccn1)N(CCN1CCCC1)Cc1ccc(Cl)cc1` were, in that order, -14% and 1.29.
On to `C[C@@H](c1ccc(F)c(F)c1)N(C)c1ccn(C)n1`, for which the “% Inhibition” value is listed as -5% and the Z score was 0.69.
For `COc1ccc(S(=O)(=O)Nc2cc(C#N)ccc2NC2CC2)cc1OC`, in that order: 2% and -0.26.
For `Cc1cc(CS(=O)(=O)[C@@H](C)C(=O)NCC(C)C)on1`, the “% Inhibition” value is recorded as 36% and the Z score was -1.13.
For `COc1cc(F)ccc1S(=O)(=O)N1CCN(Cc2c(-c3ccc(F)cc3)nc3ccc(-c4cccc(C)c4)cn23)CC1`, in that order: -8% and 0.94.
The like results for `OCC1CCN([C@H]2CCCN(Cc3ccccc3C(F)(F)F)C2)CC1` were, in that order, -5% and 0.52.
For `Cc1ccc(-n2cc(CN3CCN(C)[C@H](C(=O)O)C3)cn2)cc1C`, in that order: -13% and 1.19.
Regarding `CCOC(=O)C(NC(=O)C(O)c1ccccc1)C(O)c1cccnc1` (stereo not drawn), the “% Inhibition” value is given as -9% and the Z score is reported as 1.08.
The like results for `Cc1ccncc1C(=O)N1CCC2(CC1)CC(=O)N(Cc1c(C)noc1C)C2` were, in that order, -15% and 2.59.
As for `N#Cc1ccccc1-c1ccc(CN2CC(N3CCOCC3)C2)o1`, the “% Inhibition” value was -4% and the Z score came to 0.6.
As to `CCC(C)c1ccc(NC(=O)N2CC(c3ccccc3)C(c3ccc(Cl)cc3)=N2)cc1` (stereo not drawn), the “% Inhibition” value was found to be 37% and the Z score is listed as -1.11.
As to `COc1ccccc1C1(c2nnc([C@@H]3COc4ccccc4O3)o2)CCOCC1`, the “% Inhibition” value is listed as -2% and the Z score is 0.26.
The like results for `CC(C)(C)c1nc(CNC[C@H]2CN(C3CC3)CCO2)cs1` were, in that order, -11% and 1.59.
For `Cc1nc(C(C)C)ncc1C(=O)N1C[C@@H]2[C@H](C1)[C@H]1CC[C@@H]2O1`, in that order: -6% and 0.97.
As to `CCS(=O)(=O)Oc1ccc(CN(Cc2ccc(F)cc2)C(=O)Nc2ccccc2)cc1`, the “% Inhibition” value was -18% and the Z score is on record as 1.67.
For `COc1ccc(C2Nc3ccc(Cl)cc3[C@H]3OCCC[C@@H]23)cc1` (stereo partly drawn), in that order: 5% and -0.81.
The like results for `CCS(=O)(=O)N1CCN(Cc2ccc3cn[nH]c3c2)CC1` were, in that order, -7% and 0.66.
As for `O[C@H]1CCCN(CCCn2ccnc2-c2cc3ccccc3o2)C1`, the “% Inhibition” value is given as 1% and the Z score is listed as -0.08.
The like results for `O=S1(=O)CCC[C@H](NS(=O)(=O)c2cccc(Cl)c2O)C1` were, in that order, -2% and 0.27.
For `CC(C)CN(C1CCN(C)CC1)C1CN(C(=O)c2n[nH]c3ccccc23)C1`, in that order: -5% and 0.62.
For `CCN(C(=O)c1cc2c(s1)CCC2)[C@H]1CCS(=O)(=O)C1`, the “% Inhibition” value was -14% and the Z score is 2.71.
Regarding `CCn1cc(CNC(=O)c2cc(C)nc3onc(-c4cccc(OC)c4)c23)cn1`, the “% Inhibition” value is recorded as 3% and the Z score was -0.48.
The like results for `CN(C)S(=O)(=O)c1cnn(Cc2cc(O)cc(C(F)(F)F)c2)c1` were, in that order, -8% and 1.04.
The like results for `CN(C[C@H]1CCCCO1)C(=O)Cn1ncc(N(C)C)cc1=O` were, in that order, -11% and 2.02.
For `Cn1cc(NC(=O)CCOC2CCOCC2)cn1`, in that order: -2% and 0.2.
With `CS(=O)(=O)N1CCC[C@H]1C1CCCCC1`, the “% Inhibition” value came to 21% and the Z score is reported as -2.41.
The like results for `O=C1NCCN1CCN1CCC(c2nc3cc(Cl)ccc3s2)CC1` were, in that order, -9% and 0.75.
The like results for `Cc1cccc(CN2C(=O)CC3(CCC3)C2=O)n1` were, in that order, -5% and 0.87.
The like results for `CCN(C(=O)[C@@H]1CC[C@H](C(=O)O)C1)c1ccc2[nH]ccc2c1` were, in that order, 1% and -0.25.
For `COc1cccc(-n2nc(C)c(CCC(=O)Nc3cccc(C(=O)NC4CC4)c3)c2C)c1`, the “% Inhibition” value stood at 0% and the Z score is given as -0.04.
For `Cc1n[nH]c2c1CN(C(=O)c1csc(C(C)C)c1)CC2`, in that order: -12% and 1.1.
For `CCOc1ccccc1OCC#CCNC`, in that order: -6% and 1.1.
For `CC(C)Cc1cc(C(=O)N[C@H]2CCNC2=O)nc(=O)[nH]1`, in that order: -8% and 0.99.
For `N#Cc1cnc(NCCN2CCCCC2)cn1`, the “% Inhibition” value was -7% and the Z score was determined as 0.88.
The like results for `Cc1ccccc1-n1nc(C)c2[nH]c(-c3nc(C)c(C)nc3C)nc21` were, in that order, -5% and 0.61.
For `NCCOc1ncccc1C(F)(F)F`, in that order: -34% and 4.04.
With `CN(C)Cc1ccc(C(=O)N2CC[C@@H]3OCc4cccc(c4)Oc4cccc(c4)CCC(=O)N(C)CC(=O)N[C@@H]3C2)o1`, the “% Inhibition” value was 8% and the Z score is -1.12.
